# A collection of fitness landscapes (doi:10.1016/j.celrep.2020.107928)
# The full ranking holds about 81,000 sequences; the median of “one-hybrid fitness for binding parS DNA” is about -0.17, and the highest 2% start at about 0.51. The list shows a part of the results.
# B1: Caulobacter ParB omega fusion; a variant is named by its letters at X, in order, B8GW30 (parent)
# chain: MESVVVGEPGMSEGRRGLGRGLSALLGEVDAAPAQAPGEQLGGSREAPIEILQRNPDQPRRTFREEDLEDLSNSIREKGVLQPILVRPSPDTAGEYQIVAGERAWRAAQRAGLKTVPIMVRELDDLAVLEIGIIENVQRADLNVLEEALSYKVLMEKFERTQENIAQTIGKSXSHVANXMRLLXLPDEVQSYLVSGELTAXHARAIAAAADPVALAKQIIEGGLSVRETEALARKAPNLSAGKSKGGRPPRVKDTDTQALESDLSSVLGLDVSIDHRGSTGTLTITYATLEQLDDLCNRLTRGI
# Variants of: B1
# Assay: one-hybrid fitness for binding parS DNA (scaled: cognate 1, non-cognate 0); higher = stronger binding
# Conditions: with parS DNA site
# In short: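 Selection: bacterial one-hybrid in E. coli USO, HIS3 reporter with the site 19 bp from the promoter, 48 hours at 37°C on M9-minus-histidine plus 0.1 mM IPTG and 5 mM 3-AT. Libraries were Caulobacter ParB with four randomised specificity codons, sequenced on Illumina before and after selection. Fitness is the rescaled log change in variant-to-wild-type read ratio, anchored to the cognate and non-cognate sites.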
row,Variant,one-hybrid fitness for binding parS DNA
1,KKMC,≤ 0.2
2,GCYT,≤ 0.2
3,SASH,≤ 0.2
4,RVWC,0.963
5,TTHT,≤ 0.2
6,ATPA,≤ 0.2
7,KPNG,≤ 0.2
8,RSGQ,≤ 0.2
9,DDSR,≤ 0.2
10,FSNR,≤ 0.2
11,YSVE,≤ 0.2
12,YLRY,≤ 0.2
13,VNRG,≤ 0.2
14,TFTA,≤ 0.2
15,SRHR,≤ 0.2
16,HFDC,≤ 0.2
17,GVHA,≤ 0.2
18,RQMH,0.292
19,PPNT,≤ 0.2
20,RGDA,0.235
21,PMGL,≤ 0.2
22,VFTC,≤ 0.2
23,RGKV,≤ 0.2
24,WRSY,≤ 0.2
25,DRLE,≤ 0.2
26,SLSS,≤ 0.2

row,Variant,one-hybrid fitness for binding parS DNA
1,EAKF,≤ 0.2
2,PDVR,≤ 0.2
3,VINR,≤ 0.2
4,QRMG,≤ 0.2
5,QKSQ,≤ 0.2
6,NRDT,≤ 0.2
7,PVVV,≤ 0.2
8,MCRS,≤ 0.2
9,QASL,≤ 0.2
10,MPTC,≤ 0.2
11,RQVT,0.678
12,RFGT,0.775
13,LVGC,≤ 0.2
14,FVMG,≤ 0.2
15,RSLW,0.233
16,VNSK,≤ 0.2
17,PSKY,≤ 0.2
18,NNGR,≤ 0.2
19,VITI,≤ 0.2
20,QRMN,≤ 0.2
21,NNCR,≤ 0.2
22,RMYC,1.01
23,SKVM,≤ 0.2
24,LSPT,≤ 0.2
25,AVTP,≤ 0.2
26,CYDC,≤ 0.2

row,Variant,one-hybrid fitness for binding parS DNA
1,NKNT,≤ 0.2
2,RATY,0.469
3,NPAS,≤ 0.2
4,GSLA,≤ 0.2
5,NDDV,≤ 0.2
6,GPPV,≤ 0.2
7,TQYV,≤ 0.2
8,EDLL,≤ 0.2
9,RPNR,≤ 0.2
10,VKNC,≤ 0.2
11,SRQR,≤ 0.2
12,LAPT,≤ 0.2
13,WGFG,≤ 0.2
14,VLRG,≤ 0.2
15,KHRR,≤ 0.2
16,PVIS,≤ 0.2
17,RQRT,0.849
18,EKKR,≤ 0.2
19,CRPM,≤ 0.2
20,TPQL,≤ 0.2
21,IRNC,≤ 0.2
22,PVNS,≤ 0.2
23,NSHS,≤ 0.2
24,NGLL,≤ 0.2
25,SMEV,0.264
26,ETHT,≤ 0.2

row,Variant,one-hybrid fitness for binding parS DNA
1,QLGH,≤ 0.2
2,AITC,≤ 0.2
3,VEGM,≤ 0.2
4,RGCV,≤ 0.2
5,FPVA,≤ 0.2
6,QASR,≤ 0.2
7,VEHG,≤ 0.2
8,IKVY,≤ 0.2
9,VQVC,≤ 0.2
10,PFTI,≤ 0.2
11,REPV,≤ 0.2
12,HWRI,≤ 0.2
13,EPSF,≤ 0.2
14,ATAD,≤ 0.2
15,HLPS,≤ 0.2
16,VSHP,≤ 0.2
17,QIMS,≤ 0.2
18,EADS,≤ 0.2
19,LYWS,≤ 0.2
20,PLPP,≤ 0.2
21,ECKN,≤ 0.2
22,WRIS,≤ 0.2
23,APPQ,≤ 0.2
24,WKDV,≤ 0.2
25,TPMT,≤ 0.2
26,DVAI,≤ 0.2

row,Variant,one-hybrid fitness for binding parS DNA
1,AARI,≤ 0.2
2,DLHS,≤ 0.2
3,QHNF,≤ 0.2
4,AHLC,≤ 0.2
5,NVAM,≤ 0.2
6,QFYV,≤ 0.2
7,EDRL,≤ 0.2
8,GHQA,≤ 0.2
9,RALQ,≤ 0.2
10,CLEW,≤ 0.2
11,PTDT,≤ 0.2
12,YWSL,≤ 0.2
13,SREC,≤ 0.2
14,KTGW,≤ 0.2
15,SASV,≤ 0.2
16,RYFN,0.425
17,RCLP,≤ 0.2
18,SHIG,≤ 0.2
19,QHAH,≤ 0.2
20,PNWR,≤ 0.2
21,PVHI,≤ 0.2
22,PWQS,≤ 0.2
23,LLWS,≤ 0.2
24,SLPE,≤ 0.2
25,AIGL,≤ 0.2
26,CANC,≤ 0.2

row,Variant,one-hybrid fitness for binding parS DNA
1,LRLE,≤ 0.2
2,SLAW,≤ 0.2
3,PQML,≤ 0.2
4,DMPN,≤ 0.2
5,PYQL,≤ 0.2
6,RMDM,0.302
7,LDMR,≤ 0.2
8,IEMC,≤ 0.2
9,RAYY,0.501
10,IWIR,≤ 0.2
11,ECEG,≤ 0.2
12,HETG,≤ 0.2
13,WANL,≤ 0.2
14,VRER,≤ 0.2
15,QIDM,≤ 0.2
16,SWLS,≤ 0.2
17,APYC,≤ 0.2
18,GHNV,≤ 0.2
19,KRCA,≤ 0.2
20,QTCN,≤ 0.2
21,PMVW,≤ 0.2
22,RTMF,0.245
23,RMLT,0.974
